# Measured values reported in the supplement of paper PMC11417369.
# ± gives the standard deviation of the averaged measurements. The list shows a part of the results.
# System: PfAP2-I AP2 domain 3 (GST-tagged)
# Assay: gcPBM binding intensity (ln(normalized median fluorescence intensity)); higher = stronger DNA binding
# Outline: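 Binding of GST-tagged P. falciparum DNA-binding domains, expressed in E. coli and used at about 25 μg on average, was carried out for 1 h in 1× PBS containing 1% milk, 0.2 mg/ml BSA, 0.5% salmon testes DNA and 0.03% Triton X-100. The target was an Agilent 4 × 180k array of primer-extended double-stranded 36-bp intergenic genomic probes plus negative controls, read with Alexa488 anti-GST antibody at 488 nm. Binding intensity is the highest Masliner-normalised natural-log median intensity across replicate spots of either probe orientation.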
row,Sequence,gcPBM binding intensity (ln)
1,GATAATACATAAATTTATAAGTGGAAGAATAAATAA [CACACA_negctrl_site698],8.07 ± 0.6
2,ACAAACAAATAAATATGTACGAATAAATAAAATTTT [XGTACX_site4664],7.61 ± 0.6
3,TTTTTTTTCAAAAATACAAAAAAAAAAGAAAAAAAC [CACACA_negctrl_site625],8.06 ± 0.4
4,TGCTCTAATTTATATACACACAAATATGTACACATA [CACACA_site7845],8.07 ± 0.38
5,TAATTTTTTTAAGAGAGTACATGACTCAACAGTTTA [XGTACX_site3103],7.49 ± 0.4
6,TTTCATAAATAATAAAATAAAATATGAAGCAAAAGG [CACACA_negctrl_site1767],7.88 ± 0.68
7,TTATATCCAACTTGAAAAAAGGTATATGTTTATATA [CACACA_negctrl_site1746],7.47 ± 0.47
8,TTTTTTTTTTTTTGGAGTACATGTTTATAACATAAT [XGTACX_site1799],8.17 ± 0.67
9,TTATTATCTCTTGTCATTATTATATACTAAGAAGTA [CACACA_negctrl_site410],7.58 ± 0.71
10,AATATGAAATATATTACACACATTTATATGTTGAAA [CACACA_site1427],7.59 ± 0.39
11,AATACACCCAGACACACACACAAAAAAAAAAAAAAA [CACACA_site513],8 ± 0.58
12,ATATATATATTAAATACACACATTTTTGATTAGGTT [CACACA_site3119],8.99 ± 0.057
13,TTTGAATCCTTATATACACACATTATGTAATATTAT [CACACA_site561],7.75 ± 0.65
14,AAAAGAGAAATGGGCACACACACACCGATTATATAT [CACACA_site4942],7.93 ± 0.66
15,ATTACATTTTTAATGCGTACTAAAAATGTATATAAG [XGTACX_site6384],7.96 ± 0.3
16,AATATAAAAATGTTTACACACACACCCAAATATATT [CACACA_site2511],8.02 ± 0.49
17,AGAATTACTTAAAAAAGTACATAAAATTATTTAAAA [XGTACX_site2205],7.64 ± 0.21
18,AAAAGTCTCTTTTTAGTGCACATTTTATTTAAATAT,11.32 ± 0.078
19,CAGATAAGGTGAAGCTGTACAAAAATGTTTTATAAC [XGTACX_site6783],7.78 ± 0.69
20,TCTAATTATCACATTGCACACACATTTCCTTTTACA [CACACA_site9140],8.97 ± 0.34
21,TAATTAATTTATGTAACACACATTGTTGATTCAATA [CACACA_site1098],7.73 ± 0.44
22,TTATACTGTATAGTCGCACACAAAAATATAAAATAT [CACACA_site3869],7.84 ± 0.43

row,Sequence,gcPBM binding intensity (ln)
1,ATTTTAATAAACACTTACATGTTTTCCAAATTGTAT [CACACA_negctrl_site1807],7.46 ± 0.61
2,TTCGTTAAAAATAAATGTACATAAATAAACCTTATT [XGTACX_site621],7.71 ± 0.3
3,ATATTAAGAATGTATACATGCATATATATATAGTAC [TGCATGCA_site219],8.16 ± 0.63
4,TATTAATAAATATGTTTACACACGAAAATACATTTT [CACACA_site1012],7.64 ± 0.73
5,AAAGATTTAGAAAATGAACACACGAGCACCCACCGA [CACACA_site1017],8.99 ± 0.29
6,GAAAGAGAGATATATACACACATATTTATATTTTTA [CACACA_site7057],7.52 ± 0.49
7,ATGGAATATTTCATGATTTTTTTAATTTTTTTATTG [XGTACX_negctrl_site55],7.17 ± 0.76
8,ATTTTCATATTTTTATGTACATATTATAAGAATATA [XGTACX_site3691],7.92 ± 0.32
9,TATCTTTTTTTTAATACACACAAATTTATGAAAGTA [CACACA_site7879],8.01 ± 0.4
10,TGTCTTTATATATATTTATTTTTTAGTATTACATAA [CACACA_negctrl_site21],7.83 ± 0.6
11,TGTATAAATAAATGCGTACACACTAATAAAAAAAAA [CACACA_site858],8.22 ± 0.46
12,AAAAAAAATATGATGAGTACACAATAATACATGCAA [XGTACX_site6999],8.04 ± 0.44
13,TTATGTAAATAATTTTGTACTTAAATTATTATATAA [XGTACX_site1491],7.49 ± 0.28
14,CAACTTTTTGAAAATTGTACATGACATATATATATA [XGTACX_site260],9.29 ± 0.38
15,GTGGTTATATATTAAGTGCATATTATAATTTTAAAC,9.56 ± 0.14
16,AATATCTAAAATGTGTGTACATAATATTTTTAATAT [XGTACX_site3831],7.78 ± 0.4
17,ATAGATAAAAAATTATTTATTTAGAATTTTTATGTA [CACACA_negctrl_site400],7.29 ± 0.38
18,TTTATTCCAGTATTCACACACGAATAACCACATAAC [CACACA_site5104],7.93 ± 0.42
19,TATATAAGAGGAAAAAGTACAGAAAAACAAAGAGAA [XGTACX_site2926],8.34 ± 0.8
20,TGTATTTATAGCAATACACACATAACAATAAATATA [CACACA_site3328],7.67 ± 0.41
21,ATAATTCTTTATTATAGTACACAAACTTTCAAAACA [XGTACX_site3597],7.99 ± 0.33
22,CTATACATATTATATAGTACTTTATTATTATGACTA [XGTACX_site1382],7.74 ± 0.43

row,Sequence,gcPBM binding intensity (ln)
1,AAGAAAATATAAATATGTACTTAATAATTTATTTAT [XGTACX_site8100],7.5 ± 0.47
2,AAAAAAGAGGGATACACACAAACATATATATATATA [CACACA_site2243],9.25 ± 0.24
3,ACAAAACATATATTCTGTACATATATAATGGTGACT [XGTACX_site6796],7.55 ± 0.54
4,TTTATATCTTATTATAGGAAAATGAATATTTTCTCT [TGCATGCA_negctrl_site478],7.3 ± 0.49
5,TTTATTTTAAAATTTACACACAAAAGGATTTATAGA [CACACA_site2338],7.77 ± 0.37
6,TATATTAATTAACAGTGTACAAAAAAAAATAAAAAA [XGTACX_site3702],8.04 ± 0.47
7,AAAATAAAAAGAAATTGTACGTATAATAATATATTT [XGTACX_site7593],7.87 ± 0.37
8,AGGATACACGGACACACACACATATATATATATATA [CACACA_site4654],9.59 ± 0.49
9,TATTAAAATAACATACGTACATAAGTATATAAAAAA [XGTACX_site1769],7.88 ± 0.4
10,TATTTACACAAAATAAAATATATTATATATATATAT [TGCATGCA_negctrl_site381],9.06 ± 0.071
11,TTGCACAGATTAATCAAAAATTTTAAACCAAATATA [XGTACX_negctrl_site38],7.82 ± 0.38
12,AGAATAGAATAAAAAACACACATTTACAACATTATT [CACACA_site3894],7.66 ± 0.58
13,TATATGGAGAGATATGCACACTGTATGAATGCCCCC [CACACA_site8853],10 ± 0.31
14,TATTTATACATAGGTGGTACTACTTTAAACAAAAAA [XGTACX_site5062],8.06 ± 0.26
15,AAATAAATAATATTCACACATAAAAAAAATGGAGTT [CACACA_site4525],7.58 ± 0.65
16,GTGCAATATTTATTTTGTACATATTTATCAATAAAC [XGTACX_site8297],10.5 ± 0.77
17,TTATATTTTTACAAGAGTACATATATATATATATAT [XGTACX_site5383],9.47 ± 0.49
18,ATTAAATATATTAAATGTACATAATATATATATATA [XGTACX_site5032],9.35 ± 0.11
19,TCAAACCAGTTGATGTGTACACATATAGTAATAATT [XGTACX_site6014],8.05 ± 0.38
20,TTTATTTGATGAACATGTACAAAAAAACAAAGAACA [XGTACX_site823],8.08 ± 0.38
21,ATAAAAATAAAATGGACACACATATATACCTATTTG [CACACA_site5761],7.71 ± 0.48
22,TGATATTTTATTATTAAAATATATACATATATATAT [CACACA_negctrl_site1456],8.93 ± 0.071

row,Sequence,gcPBM binding intensity (ln)
1,AAGAAAAAAAAAAAAAAAGATACTTTTTTAAAACTA [TGCATGCA_negctrl_site13],7.33 ± 0.39
2,TTTTTTATATTGATATTTATTAAATATGAAATGTTA [GTGCAC_negctrl_site405],7.47 ± 0.28
3,TGAAAAAAGAAAAATACACACATATAATATAATATA [CACACA_site2255],7.62 ± 0.77
4,TTATATAAGATATTTCGTACACATTCAAAAATTATG [XGTACX_site7375],7.69 ± 0.42
5,AATAAAATATAAGGGGGTACGGAGAAAGGATACTAT [XGTACX_site7733],8.09 ± 0.57
6,CATACACCCCAACACACACACACACCCATATATAAT [CACACA_site8097],8.17 ± 0.38
7,AAAAAAAAAAAAAAAAGTACATATATTATATATATA [XGTACX_site2983],8.72 ± 0.37
8,CACGCACGCACATACACACACATACACATATAAATA [CACACA_site6907],8.35 ± 0.26
9,ATGTTGTTCATAAATATATTATTTTTAAATGTACAA [GTGCAC_negctrl_site507],7.67 ± 0.58
10,ATATATATTATTGAATGTACATAATTATTTAATAGT [XGTACX_site4971],8.23 ± 0.31
11,ATATATTCACGTTAATGTACACATAATAAATTATAT [XGTACX_site5481],8.04 ± 0.42
12,GTATTTAGATGATTAACACACATATGTGTATTAATA [CACACA_site6733],7.92 ± 0.41
13,TATTCACTGATATGTTGTACATAAAAAAAATTAAAT [XGTACX_site6128],7.82 ± 0.49
14,AATTATATTGGTTGTAGTACTAAAAGTAAGTTAATG [XGTACX_site33],7.96 ± 0.5
15,AGCTCTCAAAATTATTCACACGTGTCCTGTTATATA [CACACA_site5415],8.36 ± 0.57
16,ATATTTCATTAATGAACACACAAAGAGGTATATAAA [CACACA_site1519],8 ± 0.53
17,ATATTTAAAAATATAGTGCAATTATTCTAATGTGTT,9.96 ± 0.25
18,AAATAAAAGGTTGAGAGTACATTTTTGTGTATGTAT [XGTACX_site5547],7.81 ± 0.68
19,AAAAAAAAAATACAACAAAGTTAAATAAATAAATAA [GTGCAC_negctrl_site402],7.67 ± 0.84
20,ATATATTATTTTAAATGTACTCATAATAGAAATGTC [XGTACX_site40],8.04 ± 0.12
21,ATATAAAGAAAAGGAACACACAAATATATATATATA [CACACA_site463],9.08 ± 0.099
22,CACACAGGTAAAAAGGTGCAGTTGAAATATTCCTCA [GTGCAC_site9730],10.13 ± 0.028
